The source of these data is article PMC4336329 (PLoS ONE, 2015).

SMILES strings stand for the structures. The campaign covered roughly 310,000 compounds. About 2,200 (0.71%) showed an effect of 50% or more. Effects have a minus sign here. The list shows a part of the results.

human ether-à-go-go-related gene (hERG) potassium channel, sequence (Q12809 whole entry, looked up): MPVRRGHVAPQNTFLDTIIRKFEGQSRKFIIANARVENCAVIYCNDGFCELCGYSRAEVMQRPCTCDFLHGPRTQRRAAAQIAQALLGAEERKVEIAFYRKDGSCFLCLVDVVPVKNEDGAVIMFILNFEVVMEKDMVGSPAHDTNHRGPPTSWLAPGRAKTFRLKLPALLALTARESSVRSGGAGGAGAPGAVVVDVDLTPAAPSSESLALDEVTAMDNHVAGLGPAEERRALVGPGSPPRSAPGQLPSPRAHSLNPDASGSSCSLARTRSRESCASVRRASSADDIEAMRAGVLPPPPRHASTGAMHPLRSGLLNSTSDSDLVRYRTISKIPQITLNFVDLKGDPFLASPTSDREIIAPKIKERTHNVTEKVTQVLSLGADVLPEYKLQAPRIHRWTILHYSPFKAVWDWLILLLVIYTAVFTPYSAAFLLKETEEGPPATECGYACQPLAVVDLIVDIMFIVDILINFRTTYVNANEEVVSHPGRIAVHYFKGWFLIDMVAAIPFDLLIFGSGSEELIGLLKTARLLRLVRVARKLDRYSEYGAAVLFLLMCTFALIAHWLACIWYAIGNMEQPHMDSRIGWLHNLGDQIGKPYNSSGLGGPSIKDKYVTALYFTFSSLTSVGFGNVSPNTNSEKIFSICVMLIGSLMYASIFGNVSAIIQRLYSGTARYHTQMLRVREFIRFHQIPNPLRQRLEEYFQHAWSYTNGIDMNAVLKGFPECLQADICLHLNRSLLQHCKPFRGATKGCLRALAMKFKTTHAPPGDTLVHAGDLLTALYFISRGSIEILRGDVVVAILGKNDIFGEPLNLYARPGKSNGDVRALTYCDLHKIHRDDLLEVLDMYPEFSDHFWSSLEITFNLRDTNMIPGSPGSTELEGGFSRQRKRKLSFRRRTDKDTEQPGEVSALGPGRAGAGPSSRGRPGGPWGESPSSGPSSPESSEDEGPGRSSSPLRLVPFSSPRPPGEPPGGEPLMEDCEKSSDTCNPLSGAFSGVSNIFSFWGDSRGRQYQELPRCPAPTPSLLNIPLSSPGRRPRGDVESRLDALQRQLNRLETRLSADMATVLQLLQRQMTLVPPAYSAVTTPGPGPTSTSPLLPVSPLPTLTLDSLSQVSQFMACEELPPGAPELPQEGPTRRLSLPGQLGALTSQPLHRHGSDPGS

The test has as its target human ether-à-go-go-related gene (hERG) potassium channel (human, UniProt Q12809). Briefly: primary screen, population patch clamp on CHO cells stably expressing hERG.
As for `O=C(NCCc1c[nH]c2ccccc12)/C(=C\c1cccnc1)NC(=O)c1ccco1`, the “hERG current change (%, negative = inhibition) at 1uM” value was -10.8%.
Next, `CCCCn1c(N)c(N(CCC(C)C)C(=O)c2ccccc2C)c(=O)[nH]c1=O`: 17.7%; `CCN(CC)c1ccc(NC(=S)NCC2CCCO2)cc1` (stereo not shown): 10.4%; `O=c1[nH]c(CSc2ncnc3sc(-c4ccccc4)cc23)nc2ccccc12`: 25.3%.
Take `CCN(CC(=O)Nc1ccccc1C(F)(F)F)C(=O)c1cc(S(=O)(=O)N(C)C)ccc1N1CCCC1`: the “hERG current change (%, negative = inhibition) at 1uM” value is 10.5%.
As to `O=C(Nc1ccc(Cl)cc1)N(Cc1nnc2n1CCCCC2)c1ccccc1`, the “hERG current change (%, negative = inhibition) at 1uM” value is on record as 11.5%.
`O=C(c1ccc(Cl)c(Cl)c1)N1CCC(=O)N(C(COCc2cccc(C(F)(F)F)c2)Cc2ccccc2)CC1` (stereo not shown): the “hERG current change (%, negative = inhibition) at 1uM” value is on record as 12.7%.
Next, `CC1CCC2(CC1)NC(=O)N(CC(=O)NCc1cccs1)C2=O` (stereo not shown): 7.72%.
The figure for `O=C(Nc1ccc2oc(-c3ccncc3)nc2c1)c1ccc2c(c1)OCCO2` is 6.85%; for `O=C(NCc1ccco1)c1cccc(N2CCCC2=O)c1` it is 0.979%.
Turning to `CCOC(=O)[C@@H](CCc1ccccc1)N[C@H](C)C(=O)N1[C@H](C(=O)O)C[C@@H]2CCC[C@@H]21`, the “hERG current change (%, negative = inhibition) at 1uM” value came to 20.8%.
For the molecule `Cn1c(=O)[nH]c(=O)c2c1nc(SCCC(=O)O)n2Cc1cccc(Br)c1`, the “hERG current change (%, negative = inhibition) at 1uM” value turned out to be 8.44%.
Next, `CCOC(=O)N1CCC(NCCNC(=O)c2cccc(F)c2)CC1.Cl`: 14.4%; `CC(=O)Nc1cccc(Oc2ccc([N+](=O)[O-])cc2Cl)c1`: 10.2%; `O=c1[nH]c(NCCO)nc2c1C1(CCCC1)Cc1ccccc1-2`: 10.1%.
Next, `CC(=O)Nc1ccc2[nH]c(C)cc(=O)c2c1`: 5.46%.
The figure for `O=C(CCS(=O)(=O)c1ccccc1)OCC(=O)N1CCN(S(=O)(=O)c2ccc(Cl)cc2)CC1` is 8.42%; for `Cc1ccnc(N/C=C(\C#N)c2nc(-c3cccc(Br)c3)cs2)c1` it is 9.63%.
As for `c1ccc(SCCOCCn2cncn2)cc1`, the “hERG current change (%, negative = inhibition) at 1uM” value worked out at 15.3%.
`COc1cccc(CN(C)Cc2nc(Cc3ccccc3Cl)no2)c1`: the “hERG current change (%, negative = inhibition) at 1uM” value is listed as 17%.
On to `Cn1c(SCc2c(Cl)cccc2Cl)nnc1-c1ccc2nonc2c1`, for which the “hERG current change (%, negative = inhibition) at 1uM” value is listed as -4.34%.
Turning to `Cc1ccc(S(=O)(=O)N(CC(=O)NCCSC2CCCCC2)c2ccccc2F)cc1`, the “hERG current change (%, negative = inhibition) at 1uM” value is reported as 14.9%.
For the molecule `Clc1ccc(-n2nnnc2-c2ccno2)cc1`, the “hERG current change (%, negative = inhibition) at 1uM” value amounted to 11.6%.
As to `CCCCOc1ccc(Cl)cc1CSc1n[nH]c(C)n1`, the “hERG current change (%, negative = inhibition) at 1uM” value is on record as -0.253%.
Next, `Nn1c(Cc2cccc3ccccc23)nnc1SCC(=O)N1CC(=O)Nc2ccccc21`: 6.51%.
Next, `Cc1ccc(C2=NN(C(=O)CSc3nc(N)cc(N)n3)C(c3ccco3)C2)cc1` (stereo not shown): 2.97%; `COc1cccc(NC(=O)NNS(=O)(=O)c2ccc(OC)cc2OC)c1`: 8.7%; `O=C1NC(=O)N(c2ccc3c(c2)OCO3)C(=O)/C1=C\c1ccsc1`: 6.7%.
Next, `C=CCn1c(-c2ccc(OC)cc2)nc2nc3ccccc3nc21`: 18.5%; `COc1ccc(NC(=S)N2CCN(S(=O)(=O)c3ccccc3)CC2)cc1`: 8.69%; `CC1(C(=O)N/N=C/c2ccccc2)CC1(Cl)Cl` (stereo not shown): 3.03%.
On to `Cc1ccccc1NC(=O)NC1(C(=O)NCc2ccco2)CCCCC1`, for which the “hERG current change (%, negative = inhibition) at 1uM” value amounted to 11.2%.
Next, `CC(c1ccccc1)c1nnc(NC(=O)Nc2ccccc2)s1` (stereo not shown): 4.84%; `COc1ccccc1N1CCN(C(=O)c2cccc(C(=O)N3CCN(c4ccccc4OC)CC3)c2)CC1`: 5.96%; `Cc1ccc(S(=O)(=O)/N=C(\c2ccc(F)cc2)n2c(C)nc3ccccc32)cc1`: 9.35%.
Next, `COC(=O)c1ccc2c(=O)n(CCCCCC(=O)NCc3ccc4c(c3)OCO4)c(=O)[nH]c2c1`: -37.5%; `COc1ccnc2c1c(=O)n(Cc1ccc(Cl)cc1Cl)c(=O)n2C`: 11.2%.
`Cc1c(S(=O)(=O)NC2CCCCCC2)c(=O)n(C)c(=O)n1C`: the “hERG current change (%, negative = inhibition) at 1uM” value is on record as -0.188%.
Take `CCn1cc(C(=O)NCC2CCCO2)c2cc(OC)c(OC)cc2c1=O` (stereo not shown): the “hERG current change (%, negative = inhibition) at 1uM” value came out at 14.8%.
Next, `O=[N+]([O-])c1ccc(N2CCNCC2)cc1Sc1nc2ccccc2[nH]1`: -5.29%.
The figure for `Cc1ccc(NC(=O)c2cc3c(=O)oc4ccc(C)cc4c3s2)nc1` is 11.2%.
Consider `O=C(NCc1ccc(F)cc1)c1c2c(nc3ccccc13)CCC2`, for which the “hERG current change (%, negative = inhibition) at 1uM” value is listed as -3.74%.
The figure for `CC1CCC2(CC1)NC(=O)N(NC(=O)CSc1nnc(NC3CC3)s1)C2=O` (stereo not shown) is 3.44%; for `COc1ccc(CC(=O)Nc2ccccc2-c2ccccc2)cc1OC` it is 14.5%; for `Cl.Clc1cccc(CNCCCSc2ncccn2)c1Cl` it is 16.4%.
The figure for `O=C(Nc1nnc(C2CC2)s1)C1Cc2ccccc2CN1C(=O)c1ccco1` (stereo not shown) is 5.83%.
Regarding `O=C(/C=C/c1ccccc1)NC(=S)Nc1ccc(N2CCOCC2)c(Cl)c1`, the “hERG current change (%, negative = inhibition) at 1uM” value is 12.1%.
On to `CCC(C)C(NC(=O)C1CCC(C)CC1)C(=O)NC(C(=O)OC)C(C)C` (stereo not shown), for which the “hERG current change (%, negative = inhibition) at 1uM” value stood at 8.78%.
The figure for `Cn1c(-c2ccccc2)c(CCO)c2ccccc21` is 13%.
As to `Cc1ccc(-c2nnn(CC(=O)N(Cc3cccs3)C(C(=O)NC(C)(C)C)c3ccco3)n2)o1` (stereo not shown), the “hERG current change (%, negative = inhibition) at 1uM” value amounted to 17.7%.
As to `Cc1ccc(S(=O)(=O)N2CCOCC2)cc1NC(=O)CSc1ccccn1`, the “hERG current change (%, negative = inhibition) at 1uM” value turned out to be 3.83%.
Consider `CCOC(=O)N1CCN(S(=O)(=O)c2ccc3c(c2)CC(C)N3C(C)=O)CC1` (stereo not shown), for which the “hERG current change (%, negative = inhibition) at 1uM” value turned out to be 19.9%.
The figure for `CCOc1ccc(S(=O)(=O)N2CCN(C(=O)C3CSC4(C)CCC(=O)N34)CC2)cc1` (stereo not shown) is 13.2%; for `Cn1cnc([N+](=O)[O-])c1Oc1cccc2ccccc12` it is 11.8%; for `CCn1c(O)c(C=NCc2cccs2)c(=O)[nH]c1=O` it is 3.5%.
